Reference: the antibiotic and cytotoxicity screens of Wong et al. (2023)
This is one part of the list.

Experiments:
HSkMC = human skeletal muscle cells; test: cytotoxicity call (relative viability < 0.9); conditions: 10 µM
S. aureus RN4220 = test: growth inhibition call (relative growth <= 0.2); conditions: 50 µM

| SMILES | cytotoxicity call (HSkMC) | growth inhibition call (S. aureus RN4220) |
| --- | --- | --- |
| C[C@H]1CN([C@@H](C)CO)C(=O)c2cc(NS(=O)(=O)c3ccccc3)ccc2O[C@@H]1CN(C)Cc1ccc(Cl)c(Cl)c1 | inactive | inactive |
| C[C@@H]1CN([C@H](C)CO)C(=O)c2cccc(NC(=O)Nc3ccc4c(c3)OCO4)c2O[C@@H]1CN(C)Cc1ccc(C(=O)Nc2ccccc2N)cc1 | inactive | inactive |
| O=C(CN1CCOCC1)N[C@@H]1CC[C@H](CCNC(=O)Nc2cc(F)ccc2F)O[C@@H]1CO | inactive | inactive |
| CCOC(=O)C1=NNC[C@@H]1C(=O)OCC | inactive | inactive |
| C[C@@H]1CN([C@H](C)CO)C(=O)c2cccc(NS(C)(=O)=O)c2O[C@H]1CN(C)C(=O)Nc1ccc2c(c1)OCO2 | inactive | inactive |
| CO[C@H]1CN(C)C(=O)c2ccc(NS(=O)(=O)CC(F)(F)F)cc2OC[C@H](C)N(C(=O)c2ccc3c(c2)OCO3)C[C@H]1C | inactive | inactive |
| C=CCC[C@H](Cc1ccc(F)cc1)C(=O)O[C@H](CNC(=O)[C@H](CC=C)CC(=O)N(CCO)Cc1ccccc1)c1ccccc1 | inactive | inactive |
| O=C(C[C@H]1C[C@H]2c3cc(NC(=O)Cc4ccncc4)ccc3O[C@H]2[C@@H](CO)O1)NCc1cc(F)ccc1F | inactive | inactive |
| COc1cc2c(cc1OC)CN(C(=O)[C@@H]1[C@H]3C(=O)O[C@H](c4ccccc4)[C@H](c4ccccc4)N3[C@H](c3ccc(O)cc3)[C@@]13C(=O)Nc1ccccc13)CC2 | inactive | inactive |
| Nc1ncnc2c1ncn2[C@@H]1O[C@H](CO)[C@@H](O)[C@@H]1O | inactive | inactive |
